The results in this text go back to the supplement of paper PMC9446081.

Out of some 39,000 compounds screened, about 220 (0.56%) showed activity. The list shows a part of the results.
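Further: static incubation at 37 °C against the wild-type strain, values averaged over two biological replicates.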

This test relates to Escherichia coli K-12 BW25113. As to the kind of experiment: relative growth (OD600 normalised to plate interquartile mean) (fraction); higher = less growth inhibition, active = 0.2 or less. The following applies: 50 µM; LB; incubation time: overnight (16-24 h).
As for `COc1ccc2c3c([nH]c2c1)[C@@H](CO)N(Cc1ccc(cc1)Cl)C[C@]13CCN(CC1)Cc1ccccc1`, the relative growth is inactive: 0.976.

Take `C[C@@H]1CN([C@H](C)CO)C(=O)Cc2cc(NC(=O)C3CCCCC3)ccc2O[C@@H]1CN(C)S(C)(=O)=O`: the relative growth is inactive: 1.02.

Take `COc1ccc2c(c1)n(CCN)c(=O)n2C(=O)[C@@H]1C[C@H](C)CC[C@H]1C(C)C`: the relative growth is inactive: 0.358.

Take `Cc1ccc(S(=O)(=O)N2C[C@@H](O)COC[C@H]3O[C@@H](CC(=O)NCCCN(C)C)CC[C@@H]32)cc1`: the relative growth is inactive: 1.01.

On to `Cc1cnc2c(c1NCCN(C)C)c(=O)n(C)c(=O)n2C`, for which the relative growth was inactive: 1.

Regarding `COc1ccc(C#Cc2cnc3c(c2)C(=O)N([C@H](C)CO)C[C@H](C)[C@@H](CN(C)CC2CCOCC2)O3)cc1`, the relative growth is inactive: 1.03.

In the case of `O=C1C=CC(O)(CC(=O)OC[C@H]2O[C@@H](OC(=O)CC3(O)C=CC(=O)C=C3)[C@H](O)[C@@H](O)[C@H]2O)C=C1`, the relative growth was inactive: 0.991.

In the case of `O=C(C[C@H]1CC[C@H]2[C@@H](COC[C@@H](O)CN2C(=O)Nc2ccc(C(F)(F)F)cc2)O1)NCc1ccncn1`, the relative growth was inactive: 1.01.

As to `CCCNC(=O)N1C[C@]2(CCN(CC2)S(=O)(=O)c2ccccc2)c2c(n(c3cc(ccc23)OC)C)[C@H]1CO`, the relative growth is inactive: 1.01.

As to `C[C@@H]1CN([C@@H](C)CO)C(=O)Cc2cc(NC(=O)CCN3CCOCC3)ccc2O[C@@H]1CN(C)S(=O)(=O)c1ccc(F)cc1`, the relative growth is inactive: 1.01.

With `Cc1ccc(S(=O)(=O)N(C)C[C@@H]2Oc3ccc(NS(=O)(=O)c4ccccc4)cc3C(=O)N([C@H](C)CO)C[C@H]2C)cc1`, the relative growth is inactive: 1.01.

As for `C[C@H](O)C#Cc1cnc2c(c1)C(=O)N([C@H](C)CO)C[C@@H](C)[C@@H](CN(C)C(=O)CN1CCOCC1)O2`, the relative growth is inactive: 1.

With `CCOC(=O)c1c(CN2CCN(c3ccccc3C)CC2)n(-c2ccccc2)c2cc(Br)c(O)cc12`, the relative growth is inactive: 1.03.

For the compound `C[C@H]1CN([C@@H](C)CO)C(=O)c2cc(NC(=O)Cn3cnnn3)ccc2O[C@H]1CN(C)Cc1ccccc1`, the relative growth is inactive: 0.967.

Turning to `COc1ccc(NC(=O)Nc2cccc3c2O[C@H](CN(C)Cc2ccc(Cl)c(Cl)c2)[C@H](C)CN([C@H](C)CO)C3=O)cc1`, the relative growth is inactive: 1.02.

As for `C[C@@H]1CN([C@H](C)CO)C(=O)c2cc(-c3cncnc3)cnc2O[C@H]1CN(C)C(=O)Nc1ccc2c(c1)OCO2`, the relative growth was inactive: 0.999.

In the case of `Cn1cnc(S(=O)(=O)N[C@H]2C=C[C@@H](CC(=O)NCC3CC3)O[C@@H]2CO)c1`, the relative growth was inactive: 0.994.

As for `C[C@H]1CCCCO[C@@H](CN(C)C(=O)Nc2ccc3c(c2)OCO3)[C@@H](C)CN([C@@H](C)CO)C(=O)c2cc(NC(=O)c3ccncc3)ccc2O1`, the relative growth was inactive: 0.973.

For `C[C@H](CO)N1C[C@H](C)[C@@H](CN(C)Cc2ccccn2)Oc2ncc(C#Cc3cccc(F)c3)cc2C1=O`, the relative growth was inactive: 1.

`COc1ccc(C#Cc2cnc3c(c2)C(=O)N([C@H](C)CO)C[C@@H](C)[C@@H](CN(C)C(=O)CN(C)C)O3)cc1`: the relative growth is inactive: 1.02.

For `CC(C)NC(=O)N(C)C[C@@H]1OCCCC[C@H](C)Oc2ccc(NS(=O)(=O)c3cn(C)cn3)cc2C(=O)N([C@H](C)CO)C[C@@H]1C`, the relative growth is inactive: 1.

For the compound `CC1CC(=O)NN=C1c1ccc(NN=C(C#N)C#N)cc1` (stereo unspecified), the relative growth is inactive: 1.05.

For `N#CCCS(=O)(=O)c1ccc(N)cc1`, the relative growth is inactive: 1.03.

On to `C=CCN(Cc1ccccc1)C(=O)[C@@H]1N(c2cccc(Cl)c2CO)C(=O)[C@H]2[C@H](C(=O)OCC)[C@@H]3C=C[C@]12O3`, for which the relative growth is inactive: 1.04.

In the case of `C[C@H](CO)N1C[C@H](C)[C@H](CN(C)C(=O)C2CCOCC2)Oc2ncc(C#Cc3ccccc3F)cc2C1=O`, the relative growth is inactive: 1.01.

In the case of `C[C@H](CO)N1C[C@H](C)[C@@H](CN(C)S(=O)(=O)c2ccc(F)cc2)Oc2ccc(NS(=O)(=O)c3ccc(F)cc3)cc2CC1=O`, the relative growth is inactive: 0.981.

Take `Cc1cc(C(=O)Nc2cccc3c2O[C@@H](CN(C)C(=O)Nc2c(C)noc2C)[C@H](C)CN([C@@H](C)CO)C3=O)n(C)n1`: the relative growth is inactive: 0.981.

For `Cc1noc(C)c1NC(=O)Nc1ccc2c(c1)C(=O)N([C@H](C)CO)C[C@H](C)[C@@H](CN(C)S(=O)(=O)c1cccs1)OCCCC[C@@H](C)O2`, the relative growth was inactive: 0.979.

Turning to `OCc1ccc2nccn2c1`, the relative growth is inactive: 0.969.

In the case of `C[C@H]1CN([C@@H](C)CO)C(=O)Cc2cc(NC(=O)CCN3CCOCC3)ccc2O[C@@H]1CN(C)C(=O)Nc1ccc(F)cc1`, the relative growth is inactive: 0.936.

Turning to `Cc1ccc(S(=O)(=O)N(C)C[C@@H]2Oc3ccc(NS(=O)(=O)c4ccc(F)cc4)cc3C(=O)N([C@H](C)CO)C[C@@H]2C)cc1`, the relative growth was inactive: 1.08.

Take `C[C@H](CO)N1C[C@H](C)[C@@H](CN(C)Cc2ccncc2)Oc2ccc(NS(=O)(=O)c3cn(C)cn3)cc2C1=O`: the relative growth is inactive: 1.01.

Consider `C/C=C/c1ccc([C@H]2[C@@H](CO)N(S(=O)(=O)Cc3ccccc3)C23CN(C(=O)C2CCOCC2)C3)cc1`, for which the relative growth is inactive: 0.995.

In the case of `C[C@H](CO)N1C[C@H](C)[C@@H](CN(C)Cc2ccc(C(F)(F)F)cc2)OCCCC[C@H](C)Oc2ccc(NC(=O)Nc3ccc(C(F)(F)F)cc3)cc2C1=O`, the relative growth is inactive: 1.03.

On to `CN1CCN(C(=O)C[C@H]2CC[C@@H]3[C@H](COC[C@H](O)CN3CC3CCCC3)O2)CC1`, for which the relative growth is inactive: 1.

Regarding `C=C1[C@H]2C[C@@H]3C(=C4[C@H](CO[C@@H]4[C@H]4CCCN4S(=O)(=O)c4ccccc4[N+](=O)[O-])[C@H]4C(=O)N(C)C(=O)[C@H]43)C[C@@H]2C(=O)N1C`, the relative growth was inactive: 0.938.

As to `C[C@H]1CN([C@@H](C)CO)C(=O)c2cccc(NC(=O)Nc3ccc(C(F)(F)F)cc3)c2O[C@H]1CN(C)C(=O)NC1CCCCC1`, the relative growth was inactive: 0.913.

`CN1C[C@@H](O)COC[C@@H]2O[C@@H](CC(=O)N3CCN(c4ccccc4)CC3)CC[C@H]21`: the relative growth is inactive: 1.01.

For the compound `COc1ccc(NC(=O)N(C)C[C@H]2OCCCC[C@@H](C)Oc3ccc(NS(=O)(=O)c4cccs4)cc3C(=O)N([C@H](C)CO)C[C@@H]2C)cc1`, the relative growth is inactive: 0.995.

Regarding `C[C@H](CO)N1C[C@H](C)[C@@H](CN(C)CC2CCOCC2)Oc2cc(-c3cccnc3)ccc2S1(=O)=O`, the relative growth is inactive: 0.961.

As for `COc1ccc(S(=O)(=O)N2C[C@@H](O)COC[C@H]3O[C@@H](CC(=O)NCc4ccc(Cl)c(Cl)c4)CC[C@@H]32)cc1`, the relative growth is inactive: 1.02.

Turning to `COC(=O)Nc1c(C)cc(C)cc1C`, the relative growth is inactive: 1.

With `C[C@@H]1CCCCO[C@H](CN(C)Cc2ccc(C(F)(F)F)cc2)[C@H](C)CN([C@@H](C)CO)C(=O)c2cc(NC(=O)CCC(F)(F)F)ccc2O1`, the relative growth is inactive: 1.02.

Turning to `COc1ccc(NC(=O)N(C)C[C@@H]2Oc3ccc(NC(=O)Cn4cnnn4)cc3CC(=O)N([C@@H](C)CO)C[C@H]2C)cc1`, the relative growth is inactive: 0.993.

For `Nc1nc(=O)n([C@@H]2CS[C@H](CO)O2)cc1F`, the relative growth is inactive: 0.988.

As to `C[C@H]1CCCCO[C@H](CN(C)C)[C@@H](C)CN([C@@H](C)CO)C(=O)c2cc(NC(=O)CCCCCC(=O)Nc3ccccc3N)ccc2O1`, the relative growth was inactive: 0.988.

For the compound `C[C@H](CO)N1C[C@H](C)[C@@H](CN(C)S(C)(=O)=O)Oc2c(NC(=O)CCC(F)(F)F)cccc2C1=O`, the relative growth was inactive: 0.965.

As for `CCC[C@@H]1C[C@@H](C(=O)N[C@@H]([C@H]2O[C@H](SC)[C@H](O)[C@@H](O)[C@H]2O)[C@@H](C)O)N(C)C1`, the relative growth was inactive: 0.936.

For `C[C@@H]1CN([C@H](C)CO)C(=O)c2cc(NC(=O)c3ccccc3)ccc2O[C@@H](C)CCCCO[C@@H]1CN(C)Cc1ccc2c(c1)OCO2`, the relative growth was inactive: 1.02.

For `CN(C)CCCNC(=O)C[C@H]1CC[C@H]2[C@@H](COc3ccc(NC(=O)c4ccc5c(c4)OCO5)cc3C(=O)N2C)O1`, the relative growth is inactive: 0.995.

As for `C[C@@H]1CN([C@H](C)CO)C(=O)c2cccc(NS(=O)(=O)c3ccc(F)cc3)c2O[C@H]1CN(C)Cc1ccc(Cl)c(Cl)c1`, the relative growth is inactive: 0.985.

In the case of `C[C@@H]1CN([C@@H](C)CO)C(=O)c2cc(NS(=O)(=O)c3ccc(Cl)cc3)ccc2O[C@@H]1CN(C)S(C)(=O)=O`, the relative growth is inactive: 0.979.

`C[C@H](CO)N1C[C@H](C)[C@H](CN(C)Cc2ccc(Cl)c(Cl)c2)OCCCC[C@H](C)Oc2ccc(NC(=O)Nc3ccccc3)cc2C1=O`: the relative growth is inactive: 1.07.

For the compound `Nc1nc(=O)[nH]cc1Br`, the relative growth is inactive: 1.04.

With `CN1C(=O)C[C@@H]2[C@@H]1CCN2C(=O)c1ccc[nH]1`, the relative growth is inactive: 0.983.

In the case of `C[C@H]1CCCCO[C@@H](CN(C)C(=O)Cc2ccccc2)[C@@H](C)CN([C@@H](C)CO)C(=O)c2cc(NS(=O)(=O)c3cccs3)ccc2O1`, the relative growth was inactive: 0.976.

Take `C[C@@H]1CCCCO[C@H](CN(C)S(=O)(=O)c2cn(C)cn2)[C@@H](C)CN([C@@H](C)CO)C(=O)c2cc(NC(=O)CCCN(C)C)ccc2O1`: the relative growth was inactive: 0.971.

With `O=C(C[C@H]1CC[C@@H](NC(=O)CN2CCOCC2)[C@H](CO)O1)NCc1cccc(F)c1`, the relative growth was inactive: 0.98.

Consider `CO[C@@H]1CN(C)C(=O)c2ccc(NC(=O)C3CCOCC3)cc2OC[C@@H](C)N(Cc2cccnc2)C[C@H]1C`, for which the relative growth is inactive: 1.02.

On to `Cc1ccc(S(=O)(=O)Nc2ccc3c(c2)C(=O)N([C@H](C)CO)C[C@H](C)[C@H](CN(C)Cc2ccc(Oc4ccccc4)cc2)O3)cc1`, for which the relative growth was inactive: 1.02.

Turning to `C[C@@H]1CN([C@H](C)CO)C(=O)c2cccc(NS(=O)(=O)c3cn(C)cn3)c2O[C@@H]1CN(C)S(=O)(=O)c1cccs1`, the relative growth was inactive: 0.983.
